The results in this text go back to PMC10668032.

The list shows a part of the results. At the low end of the ranking, values are background and their order means little.

The target in the test is SIX1-Q177R homeodomain (UniProt Q15475). Put plainly: universal protein binding microarray. As to conditions: Universal all-10-mer PBM (8x60K, AMADID 030236), 300 nM GST-tagged protein, Alexa Fluor 488 anti-GST; buffer, salt, pH and temperature not stated; high values mean tight binding; most listed sequences are background and not binding sites; double strand, one strand shown.
As for AGAAAGGA, the binding signal was -0.102 E-score. For CAATTCTC, the binding signal is -0.136 E-score. Regarding AACCTTAG, the binding signal is -0.198 E-score. With CTTAGGTC, the binding signal was -0.0712 E-score. Then ATTAAAAG, with -0.215 E-score; and TAACCGGA, with 0.105 E-score; and ACTGTGCT, with -0.0781 E-score. Then CTCAGGCA, with 0.0139 E-score; and AGAGTAAC, with 0.163 E-score.

For the sequence ATGGCAGC, the binding signal was -0.135 E-score. As for TCTAAAGA, the binding signal is -0.0589 E-score. Then ACTAGTAC, with 0.106 E-score.

For CACTCTCA, the binding signal is 0.131 E-score. Then CATGCAAA, with -0.15 E-score; and CTGGGTGC, with 0.0259 E-score. Take CCTCGAAG: the binding signal is -0.209 E-score. With GAATAACC, the binding signal is -0.0265 E-score. The figure for CACAGTCA is 0.119 E-score; for ACGATTCA it is -0.112 E-score. GCTTTCCA: the binding signal is -0.272 E-score. Regarding GGTGTGCA, the binding signal came to 0.391 E-score. With AATCAGCC, the binding signal was -0.229 E-score. Then ACACCGAA, with 0.469 E-score. On to ATATAAGA, for which the binding signal is -0.0163 E-score. On to GCTTGTAA, for which the binding signal was -0.187 E-score.

AGGGCCCT: the binding signal is -0.22 E-score. Take TACCTTGA: the binding signal is 0.132 E-score. Consider CACTAGCC, for which the binding signal is 0.177 E-score. Then AGGGGTGA, with 0.13 E-score. Then AACGATCT, with -0.25 E-score; and AGGATAGC, with -0.0999 E-score. As to ATCCACCA, the binding signal was -0.0248 E-score. The figure for GGTAGCCA is -0.0624 E-score; for GGTTATAA it is -0.113 E-score.

On to CAGGAATG, for which the binding signal is -0.0712 E-score. As for ATGCCAAT, the binding signal is -0.0711 E-score. Regarding AGAAAGTA, the binding signal is -0.116 E-score. CCAGGACG: the binding signal worked out at 0.00799 E-score. As for ACGTCGCG, the binding signal was determined as 0.00292 E-score. With AAACCCCG, the binding signal came to 0.231 E-score. Then CCCTCAGC, with 0.0894 E-score; and AACTGAGC, with -0.00895 E-score; and CCTCTCCG, with -0.0794 E-score. The figure for ACGACCCC is 0.244 E-score; for GAGAGGAC it is -0.0713 E-score; for GGCGACGA it is -0.033 E-score. Then AGGCTCTC, with -0.08 E-score.

ATCCCTTG: the binding signal was -0.0196 E-score. The figure for AGGTATTC is -0.00521 E-score. For CCCCCGCC, the binding signal was 0.228 E-score.

CAGGCCCA: the binding signal was -0.206 E-score.

For CATAGGAC, the binding signal turned out to be 0.035 E-score. Then CTTTTGAA, with -0.163 E-score; and AATGTGGG, with -0.00835 E-score. With CTCTTGGC, the binding signal was -0.00764 E-score. The figure for AGGTATTG is -0.0818 E-score; for GCAGGAGC it is 0.00311 E-score; for ATTGTCGC it is -0.249 E-score. Then TATTACAA, with -0.161 E-score.

With CACGGATC, the binding signal was 0.279 E-score. With CCGTTAAA, the binding signal is -0.12 E-score. The figure for AAGGTACG is 0.0373 E-score; for CTTTAAAC it is -0.155 E-score.

As for CATCAAGA, the binding signal is -0.152 E-score.

As for AAACGTAC, the binding signal was -0.0873 E-score. The figure for ATTTCCAA is -0.0754 E-score; for GCTAACTA it is 0.013 E-score; for ATCACGTC it is 0.0297 E-score. The figure for ACCGACAT is -0.00993 E-score. CTACAGTA: the binding signal was determined as 0.0353 E-score.

As for CGCAATAC, the binding signal worked out at 0.276 E-score. The figure for GAGGGCGC is -0.0432 E-score; for ATGATATG it is -0.169 E-score; for CGTCCACA it is -0.0724 E-score.

On to TAAGTCTA, for which the binding signal came out at 0.00543 E-score. On to CGAGCGTC, for which the binding signal was -0.0964 E-score. The figure for AGATTCCC is -0.113 E-score; for ACATTGCA it is -0.0254 E-score.

For AGCCGCGG, the binding signal was 0.0295 E-score. With AAAATTGT, the binding signal is 0.0432 E-score. AATGTAGG: the binding signal was -0.0761 E-score.

With AATAACGA, the binding signal is -0.0269 E-score. Then TACAGGTA, with -0.137 E-score; and CGCTTTAC, with -0.107 E-score. Take AATCAGGT: the binding signal was -0.183 E-score. Regarding CACATCCA, the binding signal is -0.13 E-score. Then CTCGTGTA, with 0.398 E-score; and ACCGCTCA, with -0.189 E-score. As for CGTATGGA, the binding signal was -0.114 E-score.

With TACCCCTA, the binding signal was found to be 0.229 E-score. The figure for CCAACTCC is 0.0846 E-score; for GGGAGGGA it is 0.0853 E-score.

Regarding CTTCGTCC, the binding signal was -0.117 E-score.

As to AGCTCGAA, the binding signal is -0.258 E-score.

AGAGTCAC: the binding signal is 0.111 E-score. Then CCTGAACC, with 0.134 E-score; and ATAGCACG, with 0.157 E-score. On to CCCGCGCA, for which the binding signal was 0.176 E-score. Regarding GTCTTAAC, the binding signal was 0.129 E-score. The figure for TAATGCAA is -0.174 E-score; for ATGCACGA it is 0.0693 E-score; for ATCCCAAA it is -0.198 E-score.

Regarding CCAAGTCG, the binding signal worked out at 0.0759 E-score.

As for AGGCTCAA, the binding signal was -0.271 E-score. As for ATAGAAAA, the binding signal was -0.0679 E-score. Then AATCCGCG, with -0.0557 E-score; and ACCTTCAA, with -0.137 E-score. For CCTCAAGG, the binding signal is -0.0906 E-score. On to CCCACTTC, for which the binding signal was 0.0304 E-score. Regarding CGAGTGAG, the binding signal was determined as 0.13 E-score. Consider GAGGGCAC, for which the binding signal was found to be 0.00566 E-score. Then ATTGCCAG, with 0.00609 E-score. The figure for CCACACTC is 0.308 E-score; for CACGCGTA it is 0.184 E-score. Then GACTGAGC, with -0.178 E-score; and ATGGTAAT, with -0.0901 E-score. On to CGAGGAAA, for which the binding signal is -0.0731 E-score. The figure for ATCATGGA is 0.00887 E-score; for TCGACGCA it is -0.00609 E-score.

On to CAGCGAAA, for which the binding signal is -0.0825 E-score. For the sequence GCCAGCAA, the binding signal is -0.163 E-score.

With GCCCGATA, the binding signal amounted to 0.142 E-score. Then GGTCCTAC, with -0.0757 E-score; and CGAACTAC, with -0.0698 E-score. Then AAATCTTG, with -0.257 E-score; and AATTTAAG, with -0.174 E-score; and GTTAGAAA, with 0.0144 E-score. The figure for ACCATACT is 0.0472 E-score. Turning to AGCTCGCA, the binding signal was -0.17 E-score. Regarding CGGCCCGA, the binding signal is -0.0203 E-score. As for ACTCGCAA, the binding signal was 0.0208 E-score. Then AACATGTG, with 0.0316 E-score. The figure for GCAACAGC is -0.237 E-score; for CAATGGTG it is 0.299 E-score. With CGTGTTTA, the binding signal was found to be 0.346 E-score. On to TAATCTCA, for which the binding signal is -0.248 E-score.

As to AGGTATAG, the binding signal is -0.124 E-score. Then TCCCTACA, with 0.108 E-score. Regarding CTCCCCTA, the binding signal was 0.159 E-score. On to GCCCGGAC, for which the binding signal came to 0.131 E-score. Take CATGGGTC: the binding signal is 0.0693 E-score. Then CCGACATA, with 0.0627 E-score; and ATGCGTTG, with -0.0271 E-score; and GTGATGTA, with 0.0603 E-score. Regarding AACTGGTC, the binding signal is -0.119 E-score.

As to GTAGTAAA, the binding signal amounted to 0.0464 E-score. Take CAATTCAA: the binding signal was -0.0718 E-score. The figure for GTCGGCAA is -0.0898 E-score; for TTAAGGAA it is -0.129 E-score.

As to AGTTTGCA, the binding signal is -0.106 E-score. The figure for ACCTCTGG is 0.0399 E-score; for AGTGTAAT it is 0.413 E-score; for AGTACCTG it is 0.0113 E-score. Consider CCCCAGCG, for which the binding signal worked out at 0.0766 E-score. As for ACTATGTC, the binding signal was -0.126 E-score.

Consider GCACCTGA, for which the binding signal was 0.0656 E-score.

Turning to ACTTCGCG, the binding signal is -0.104 E-score. Then CGAGAAAA, with -0.306 E-score; and TACTTAAA, with -0.0659 E-score; and CCCAATGA, with 0.0235 E-score. With GGCGCGAC, the binding signal was -0.0141 E-score. Then ACGACCGA, with 0.0274 E-score. The figure for TACCACAA is -0.0323 E-score; for TCAGATCA it is -0.121 E-score. Then GGGTGCTA, with 0.217 E-score; and ACCTCCTG, with 0.108 E-score; and GCGAGTAC, with 0.175 E-score.

Regarding TAACCGCA, the binding signal was found to be 0.029 E-score. The figure for GACATCCC is -0.166 E-score; for AGCGTTGA it is 0.019 E-score. The figure for GTCAGAAC is 0.0509 E-score; for CCAGTACG it is -0.161 E-score.
